Measurements taken from the supplement of paper PMC10369915.
Some of the results follow. Rule as the data show it: active = 3.2 or more and inactive = the rest. Most of these values are background signal.

B1: TBX15_Y159_H156N (peptide)
chain: DPNQQYYIAMD
B2: SYP_Y250 (peptide)
chain: APGDAYGDAGY
B3: TBL1X_Y509_Y509C (peptide)
chain: HQEPVCSVAFS
B4: SYP_Y278 (peptide)
chain: GYQPDYGQPAG
B5: SYT1_Y365_I368T (peptide)
chain: VTVLDYDKTGK
B6: TBL1X_Y509 (peptide)
chain: HQEPVYSVAFS
B7: TDP1_Y497 (peptide)
chain: PHIKTYMRPSP
B8: TARDBP_Y155_T153M (peptide)
chain: VRFMEYETQVK
B9: TCTE3_Y87 (peptide)
chain: KFANSYRMEPL
B10: SYP_Y73_E72Q (peptide)
chain: EVEFQYPFRLH
B11: SYCN_Y108_L111M (peptide)
chain: FSAGTYPRMEE
B12: TBCK_Y153_I151M (peptide)
chain: DFPMGYPSYLA
B13: TBCK_Y153_I151M_YF (peptide)
chain: DFPMGYPSFLA
B14: TEK_Y1108_T1106M_YF (peptide)
chain: VNTMLYEKFTF
B15: TEC_Y360 (peptide)
chain: TAGFSYEKWEI
B16: SYT3_Y470 (peptide)
chain: GFSDPYVKASL
B17: SYT3_Y470_S474F (peptide)
chain: GFSDPYVKAFL
B18: SYNE2_Y3255_D3253H (peptide)
chain: VLNHAYENLTR
B19: TARDBP_Y155 (peptide)
chain: VRFTEYETQVK
B20: SYNE2_Y3255 (peptide)
chain: VLNDAYENLTR
B21: TEK_Y897 (peptide)
chain: CEHRGYLYLAI
B22: TDP1_Y497_H493R (peptide)
chain: PRIKTYMRPSP
B23: TBC1D14_Y46 (peptide)
chain: LSAPEYGPKLK
B24: TBC1D14_Y46_A43T (peptide)
chain: LSTPEYGPKLK
B25: TBC1D14_Y46_L41V (peptide)
chain: VSAPEYGPKLK
B26: TEK_Y1102_K1100N (peptide)
chain: EERNTYVNTTL
B27: SYP_Y250_D248N_YF (peptide)
chain: APGNAYGDAGF
B28: SYP_Y278_YF (peptide)
chain: GFQPDYGQPAG
B29: SYNM_Y460 (peptide)
chain: REVPVYIGEDS
B30: SYNE2_Y570_I574T_YF (peptide)
chain: SDVCMYRKNTF
B31: TACC3_Y684 (peptide)
chain: FEEVVYQAMEE
B32: SYNE1_Y6953 (peptide)
chain: EYLQKYKGFKI
B33: TAF4_Y652_P651L (peptide)
chain: SSPQLYLVPFL
B34: TBCK_Y153_YF (peptide)
chain: DFPIGYPSFLA
B35: SYNE2_Y575_YF (peptide)
chain: FRKNIYNVKST
B36: TBK1_Y153_S151F (peptide)
chain: DGQFVYKLTDF
B37: SYP_Y278_D277E (peptide)
chain: GYQPEYGQPAG

Target: SHP2 C-SH2 domain E139D
Assay: enrichment score (SH2-bound / input frequency) (ratio); bacterial display of known human phosphotyrosine sites (pTyr-Var adds point mutants) read by sequencing; higher = stronger binding; tyrosines were phosphorylated by kinases first
Conditions: peptide library: pTyr-Var
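Also: displayed peptides selected on beads carrying the immobilized SH2 domain, with library peptides lacking any tyrosine serving as negative controls.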

Enrichment score, active:
B18 3.39

Enrichment score, inactive:
B1 0.533
B2 0.481
B3 0.504
B4 0.585
B5 0.87
B6 0.809
B7 0.815
B8 1.19
B9 0.813
B10 0.87
B11 0.846
B12 0.89
B13 0.681
B14 1.77
B15 1.2
B16 0.85
B17 1.01
B19 0.849
B20 1.31
B21 0.626
B22 0.814
B23 0.726
B24 0.727
B25 0.538
B26 1.61
B27 0.588
B28 0.72
B29 1.16
B30 0.552
B31 0.847
B32 0.53
B33 1.3
B34 0.461
B35 0.753
B36 0.993
B37 0.566

Target: SHP2 C-SH2 domain wild-type
Assay: as above
Conditions: peptide library: pTyr-Var

Enrichment score, inactive:
B1 0.617
B2 0.386
B3 0.757
B4 0.545
B5 0.555
B6 0.765
B7 0.974
B8 1.14
B9 0.701
B10 0.731
B11 0.867
B12 0.614
B13 0.704
B14 1.77
B15 0.966
B16 0.729
B17 0.99
B19 1.11
B20 1.31
B21 0.754
B22 1.07
B23 0.506
B24 0.602
B25 0.776
B26 1.69
B27 0.455
B28 0.514
B29 1.04
B30 0.933
B31 0.883
B32 0.723
B33 1.05
B34 0.538
B35 0.433
B36 0.963
B37 0.585

Enrichment score, active:
B18 3.38

Target: SHP2 N-SH2 domain L43F
Assay: as above
Conditions: peptide library: pTyr-Var

Enrichment score, active:
B18 3.48

Enrichment score, inactive:
B1 0.561
B2 0.319
B3 0.649
B4 0.45
B5 0.572
B6 0.873
B7 0.672
B8 1.29
B9 0.806
B10 0.801
B11 0.678
B12 0.754
B13 0.677
B14 1.48
B15 0.906
B16 0.994
B17 0.74
B19 0.88
B20 1.59
B21 0.649
B22 0.633
B23 0.679
B24 0.761
B25 0.664
B26 1.62
B27 0.627
B28 0.573
B29 0.904
B30 0.696
B31 0.963
B32 0.556
B33 1.61
B34 0.466
B35 0.601
B36 0.895
B37 0.528

Target: SHP2 N-SH2 domain T42A
Assay: as above
Conditions: peptide library: pTyr-Var

Enrichment score, active:
B18 3.99

Enrichment score, inactive:
B1 0.498
B2 0.389
B3 0.567
B4 0.464
B5 0.759
B6 0.706
B7 0.655
B8 1.01
B9 0.673
B10 0.646
B11 0.617
B12 0.764
B13 0.663
B14 1.47
B15 1.16
B16 0.586
B17 0.948
B19 0.931
B20 1.05
B21 0.749
B22 0.519
B23 0.597
B24 0.603
B25 0.949
B26 2.14
B27 0.434
B28 0.434
B29 1.11
B30 0.694
B31 0.747
B32 0.504
B33 1.4
B34 0.458
B35 0.469
B36 0.815
B37 0.469

Target: SHP2 N-SH2 domain T52S
Assay: as above
Conditions: peptide library: pTyr-Var

Enrichment score, inactive:
B1 0.649
B2 0.427
B3 0.85
B4 0.502
B5 0.793
B6 0.801
B7 0.644
B8 0.959
B9 0.78
B10 0.859
B11 0.712
B12 0.901
B13 0.55
B14 1.37
B15 0.98
B16 0.71
B17 0.886
B19 0.745
B20 1.37
B21 0.665
B22 0.716
B23 0.67
B24 0.593
B25 0.644
B26 1.72
B27 0.527
B28 0.666
B29 0.804
B30 0.657
B31 0.806
B32 0.575
B33 1.56
B34 0.377
B35 0.684
B36 1.01
B37 0.582

Enrichment score, active:
B18 3.82

Target: SHP2 N-SH2 domain wild-type
Assay: as above
Conditions: peptide library: pTyr-Var

Enrichment score, inactive:
B1 0.498
B2 0.413
B3 0.811
B4 0.567
B5 0.854
B6 1.02
B7 0.693
B8 1.05
B9 0.668
B10 0.75
B11 0.719
B12 0.788
B13 0.594
B14 1.68
B15 0.932
B16 0.953
B17 0.852
B18 3.2
B19 1.01
B20 1.25
B21 0.939
B22 0.629
B23 0.615
B24 0.724
B25 0.762
B26 1.66
B27 0.491
B28 0.603
B29 0.851
B30 0.886
B31 1.08
B32 0.751
B33 1.28
B34 0.63
B35 0.6
B36 0.9
B37 0.707
